Test results from the supplement of paper PMC8728848.
The list shows a part of the results.

What was measured:
Experiment in all cases: glycan array binding signal (z-score within array); higher = stronger binding
Conditions in all cases: glycan notation: IUPAC condensed, linker removed
[1] = target: Fuc(a1-2)Gal(b1-4)GlcNAc(b1-2)[Fuc(a1-2)Gal(b1-4)GlcNAc(b1-4)]Man(a1-3)[Fuc(a1-2)Gal(b1-4)GlcNAc(b1-2)Man(a1-6)]Man(b1-4)GlcNAc(b1-4)GlcNAc
Method in brief: (§1)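 Glycan array binding is given as a within-array Z-score, which can be read as non-binding when negative. The arrays, 3228 of them, came from the Consortium for Functional Glycomics database and were retained only where the protein sequence was available. Z-scores were averaged across arrays of the same protein sequence at different concentrations or buffers and across linkers.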

[2] = target: Fuc(a1-2)Gal(b1-4)GlcNAc(b1-3)Gal(b1-4)GlcNAc
Method in brief: as §1

[3] = target: Fuc(a1-2)Gal(b1-4)GlcNAc(b1-3)Gal(b1-4)GlcNAc(b1-2)Man(a1-3)[Fuc(a1-2)Gal(b1-4)GlcNAc(b1-3)Gal(b1-4)GlcNAc(b1-2)Man(a1-6)]Man(b1-4)GlcNAc(b1-4)GlcNAc
Method in brief: as §1

[4] = target: Fuc(a1-2)Gal(b1-4)GlcNAc(b1-3)Gal(b1-4)GlcNAc(b1-3)Gal(b1-4)GlcNAc
Method in brief: as §1

[5] = target: Fuc(a1-2)Gal(b1-4)GlcNAc(b1-3)GalNAc
Method in brief: as §1

[6] = target: Fuc(a1-2)Gal(b1-4)GlcNAc(b1-3)[Fuc(a1-2)Gal(b1-4)GlcNAc(b1-6)]GalNAc
Method in brief: as §1

[7] = target: Fuc(a1-2)Gal(b1-4)GlcNAc(b1-3)[Fuc(a1-3)[Gal(b1-4)]GlcNAc(b1-6)]Gal(b1-4)Glc
Method in brief: as §1

[8] = target: Fuc(a1-2)Gal(b1-4)GlcNAc(b1-6)GalNAc
Method in brief: as §1

[9] = target: Fuc(a1-2)Gal(b1-4)GlcNAc6S
Method in brief: as §1

[10] = target: Fuc(a1-2)Gal(b1-4)[Fuc(a1-3)]GlcNAc
Method in brief: as §1

[11] = target: Fuc(a1-2)Gal(b1-4)[Fuc(a1-3)]GlcNAc(b1-2)Man(a1-3)[Fuc(a1-2)Gal(b1-4)[Fuc(a1-3)]GlcNAc(b1-2)Man(a1-6)]Man(b1-4)GlcNAc(b1-4)GlcNAc
Method in brief: as §1

[12] = target: Fuc(a1-2)Gal(b1-4)[Fuc(a1-3)]GlcNAc(b1-2)Man(a1-3)[Fuc(a1-2)Gal(b1-4)[Fuc(a1-3)]GlcNAc(b1-2)Man(a1-6)]Man(b1-4)GlcNAc(b1-4)[Fuc(a1-6)]GlcNAc
Method in brief: as §1

[13] = target: Fuc(a1-2)Gal(b1-4)[Fuc(a1-3)]GlcNAc(b1-2)[Fuc(a1-2)Gal(b1-4)[Fuc(a1-3)]GlcNAc(b1-4)]Man(a1-3)[Fuc(a1-2)Gal(b1-4)[Fuc(a1-3)]GlcNAc(b1-2)Man(a1-6)]Man(b1-4)GlcNAc(b1-4)GlcNAc
Method in brief: as §1

[14] = target: Fuc(a1-2)Gal(b1-4)[Fuc(a1-3)]GlcNAc(b1-3)Gal(b1-4)[Fuc(a1-3)]GlcNAc
Method in brief: as §1

[15] = target: Fuc(a1-2)Gal(b1-4)[Fuc(a1-3)]GlcNAc(b1-3)Gal(b1-4)[Fuc(a1-3)]GlcNAc(b1-3)Gal(b1-4)[Fuc(a1-3)]GlcNAc
Method in brief: as §1

[16] = target: Fuc(a1-2)Gal(b1-4)[Fuc(a1-3)]GlcNAc(b1-3)GalNAc
Method in brief: as §1

[17] = target: Fuc(a1-2)Gal(b1-4)[Fuc(a1-3)]GlcNAc(b1-3)[Neu5Ac(a2-6)Gal(b1-4)GlcNAc(b1-6)]Gal(b1-4)Glc
Method in brief: as §1

[18] = target: Fuc(a1-2)Gal3S(b1-4)GlcNAc
Method in brief: as §1

[19] = target: Fuc(a1-2)Gal6S(b1-3)GlcNAc
Method in brief: as §1

[20] = target: Fuc(a1-2)Gal6S(b1-3)GlcNAc6S
Method in brief: as §1

Fuc(a1-2)Gal6S(b1-4)Glc = target: Fuc(a1-2)Gal6S(b1-4)Glc
Method in brief: as §1

[21] = target: Fuc(a1-2)Gal6S(b1-4)Glc6S
Method in brief: as §1

[22] = target: Fuc(a1-2)Gal6S(b1-4)GlcNAc
Method in brief: as §1

Fuc(a1-2)[Gal(a1-3)]Gal = target: Fuc(a1-2)[Gal(a1-3)]Gal
Method in brief: as §1

[23] = target: Fuc(a1-2)[Gal(a1-3)]Gal(b1-3)GalNAc
Method in brief: as §1

[24] = target: Fuc(a1-2)[Gal(a1-3)]Gal(b1-3)GalNAc(b1-3)Gal(a1-4)Gal(b1-4)Glc
Method in brief: as §1

[25] = target: Fuc(a1-2)[Gal(a1-3)]Gal(b1-3)GlcNAc
Method in brief: as §1

[26] = target: Fuc(a1-2)[Gal(a1-3)]Gal(b1-3)GlcNAc(b1-2)Man(a1-3)[Fuc(a1-2)[Gal(a1-3)]Gal(b1-3)GlcNAc(b1-2)Man(a1-6)]Man(b1-4)GlcNAc(b1-4)GlcNAc
Method in brief: as §1

[27] = target: Fuc(a1-2)[Gal(a1-3)]Gal(b1-3)GlcNAc(b1-2)Man(a1-3)[Fuc(a1-2)[Gal(a1-3)]Gal(b1-3)GlcNAc(b1-2)Man(a1-6)]Man(b1-4)GlcNAc(b1-4)[Fuc(a1-6)]GlcNAc
Method in brief: as §1

[28] = target: Fuc(a1-2)[Gal(a1-3)]Gal(b1-3)GlcNAc(b1-3)GalNAc
Method in brief: as §1

B1: LSECtin (Homo sapiens), Q6UXB4 (protein)
chain: MDTTRYSKWGGSSEEVPGGPWGRWVHWSRRPLFLALAVLVTTVLWAVILSILLSKASTERAALLDGHDLLRTNASKQTAALGALKEEVGDCHSCCSGTQAQLQTTRAELGEAQAKLMEQESALRELRERVTQGLAEAGRGREDVRTELFRALEAVRLQNNSCEPCPTSWLSFEGSCYFFSVPKTTWAAAQDHCADASAHLVIVGGLDEQGFLTRNTRGRGYWLGLRAVRHLGKVQGYQWVDGVSLSFSHWNQGEPNDAWGRENCVMMLHTGLWNDAPCDSEKDGWICEKRHNC
glycan array binding signal (z-score) [1]: -0.125 | glycan array binding signal (z-score) [2]: 0.027 | glycan array binding signal (z-score) [3]: -0.113 | glycan array binding signal (z-score) [4]: -0.142 | glycan array binding signal (z-score) [5]: -0.139 | glycan array binding signal (z-score) [6]: -0.133 | glycan array binding signal (z-score) [7]: -0.135 | glycan array binding signal (z-score) [8]: -0.131 | glycan array binding signal (z-score) [9]: -0.204 | glycan array binding signal (z-score) [10]: -0.004 | glycan array binding signal (z-score) [11]: 0.032 | glycan array binding signal (z-score) [12]: -0.119 | glycan array binding signal (z-score) [13]: -0.134 | glycan array binding signal (z-score) [14]: -0.184 | glycan array binding signal (z-score) [15]: -0.171 | glycan array binding signal (z-score) [16]: -0.135 | glycan array binding signal (z-score) [17]: -0.138 | glycan array binding signal (z-score) [18]: -0.137 | glycan array binding signal (z-score) [19]: -0.129 | glycan array binding signal (z-score) [20]: -0.132 | glycan array binding signal (z-score) (Fuc(a1-2)Gal6S(b1-4)Glc): 0.371 | glycan array binding signal (z-score) [21]: -0.131 | glycan array binding signal (z-score) [22]: -0.097 | glycan array binding signal (z-score) (Fuc(a1-2)[Gal(a1-3)]Gal): -0.185 | glycan array binding signal (z-score) [23]: -0.131 | glycan array binding signal (z-score) [24]: -0.134 | glycan array binding signal (z-score) [25]: -0.157 | glycan array binding signal (z-score) [26]: 0.449 | glycan array binding signal (z-score) [27]: -0.131 | glycan array binding signal (z-score) [28]: -0.129
